Reference: publication PMC6664820, “Novel natural and synthetic inhibitors of solute carriers SGLT1 and SGLT2” (Pharmacology Research & Perspectives, 2019)
Hit rate of the full screen: of about 1,900 compounds, about 40 (2%) showed an effect of 50% or more. This is one part of the list. Residues, ends and D or L forms follow the SMILES beside them.

biological target: human SGLT1 (hSGLT1) (human, UniProt P13866); assay: primary screen, percent of control activity; higher = less effect of the substance; set-up: single well; settings: 50 µM
Sequence (P13866 whole entry, looked up): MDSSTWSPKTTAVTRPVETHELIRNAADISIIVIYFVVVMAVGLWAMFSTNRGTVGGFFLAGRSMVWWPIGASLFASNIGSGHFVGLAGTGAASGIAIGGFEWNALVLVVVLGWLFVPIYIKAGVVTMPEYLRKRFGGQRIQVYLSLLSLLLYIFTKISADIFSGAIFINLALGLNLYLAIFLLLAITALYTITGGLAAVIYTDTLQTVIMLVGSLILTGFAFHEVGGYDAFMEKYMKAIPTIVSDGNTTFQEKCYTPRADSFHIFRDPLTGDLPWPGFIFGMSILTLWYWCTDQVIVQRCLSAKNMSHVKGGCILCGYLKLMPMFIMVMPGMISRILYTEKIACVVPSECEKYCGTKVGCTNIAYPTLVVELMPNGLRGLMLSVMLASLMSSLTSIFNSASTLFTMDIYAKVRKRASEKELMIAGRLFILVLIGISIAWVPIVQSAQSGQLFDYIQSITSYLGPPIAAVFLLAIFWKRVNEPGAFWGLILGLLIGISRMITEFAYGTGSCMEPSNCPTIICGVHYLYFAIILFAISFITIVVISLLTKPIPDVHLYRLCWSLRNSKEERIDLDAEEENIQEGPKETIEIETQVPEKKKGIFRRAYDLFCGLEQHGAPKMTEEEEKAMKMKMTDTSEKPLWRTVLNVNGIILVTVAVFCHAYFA
Summary of the method: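 Single-point screen at 50 µmol/L in CHO-hSGLT1 cells, with 160 µmol/L 1-NBD-glucose in glucose-free DMEM for 90 min at 37°C. Fluorescence from isopropanol extracts was calibrated, and CHO wild-type uptake was subtracted. Data are percent of uptake without compound.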

Compound	NORMALIZED SGLT1 ACTIVITY (%)
Cc1cc(CC(=O)O)n(C)c1C(=O)c1ccc(Cl)cc1	153
COc1cc(OC)cc(OC)c1	127
O=C(Cn1ccnc1[N+](=O)[O-])NCCO	119
O=C(O)CCCCCCCCCCCC[C@@H]1C=CCC1	178
O=C(O)CCCOc1ccc(Cl)cc1Cl	352
COc1cc2c(cc1-c1cc3cc4ccoc4cc3oc1=O)OCO2	84
COc1ccc2c(c1)O[C@@H]1COc3cc(OC)c(OC)cc3[C@@H]1C2=O	255
Cc1c(OCC(F)(F)F)ccnc1CS(=O)c1nc2ccccc2[nH]1 (centres unmarked)	183
CC(C)=CCOc1c2occc2cc2ccc(=O)oc12	161
COc1ccc(C(C)=O)c(OC)c1	145
COc1ccccc1N1CCNCC1.Cl	129
Oc1ccnc(S)n1	116
COc1c2ccoc2c(OC)c2oc(=O)ccc12	116
C[C@@H]1CC[C@@]2(OC1)O[C@H]1C[C@H]3[C@@H]4CC[C@H]5C[C@@H](O)CC[C@]5(C)[C@H]4CC(=O)[C@]3(C)[C@H]1[C@@H]2C	142
Cn1c(=O)c2c(ncn2CC(O)CO)n(C)c1=O (centres unmarked)	124
C[C@]12C=CC(=O)C=C1CC[C@H]1[C@@H]3C[C@@H](O)[C@](O)(C(=O)CO)[C@@]3(C)C[C@H](O)[C@@]12F	115
CC(C)COCC(CN(Cc1ccccc1)c1ccccc1)N1CCCC1.Cl (centres unmarked)	48
CC1(C)O[C@@H]2C[C@H]3[C@@H]4CCC5=CC(=O)CC[C@]5(C)[C@@]4(F)[C@@H](O)C[C@]3(C)[C@]2(C(=O)CCl)O1	100
C[C@@H]1O[C@@H](OC[C@H]2O[C@@H](Oc3c(-c4ccc(OCCO)c(OCCO)c4)oc4cc(OCCO)cc(O)c4c3=O)[C@H](O)[C@@H](O)[C@@H]2O)[C@H](O)[C@H](O)[C@H]1O	99
C=CC(C1=CC(=O)C(OC)=CC1=O)c1ccc(OC)cc1 (centres unmarked)	123
CC1=CCc2c(cc3oc(C)cc(=O)c3c2O)OC1	126

Compound	NORMALIZED SGLT1 ACTIVITY (%)
COc1ccc(C(=O)O)c(O)c1OC	102
CN1C(C(=O)Nc2ccccn2)=C(O)c2ccccc2S1(=O)=O	100
Cc1cc(C)cc(OCC2CNC(=O)O2)c1 (centres unmarked)	229
CCCCCC(=O)O[C@]1(C(C)=O)CC[C@H]2[C@@H]3CCC4=CC(=O)CC[C@]4(C)[C@H]3CC[C@@]21C	102
COc1cccc(OC)c1C(=O)N[C@@H]1C(=O)N2[C@@H]1SC(C)(C)[C@@H]2C(=O)[O-].[Na+]	111
CC12CCC3C(=CCc4cc(O)ccc43)C1CCC2=O (centres unmarked)	118
COc1ccc(C(=O)CC(=O)c2ccc(C(C)(C)C)cc2)cc1	104
C=C[C@@](C)(O)CCC1C(=C)C[C@H](O)C2C(C)(C)CCCC12C (some centres unmarked)	115
O=c1cc(CO)occ1O	111
C[C@@H]1CC(Cl)CC[C@H]1C(=O)OC(C)(C)C (some centres unmarked)	81
CCN(CC)CCOCCOC(=O)C1(c2ccccc2)CCCC1.O=C(O)CC(O)(CC(=O)O)C(=O)O	80
CC(=O)[O][Hg][c]1ccccc1	4
CC(=O)N[C@@H](CS)C(=O)O	80
CC(=O)O[C@H]1C[C@@]2(C)[C@@H](C[C@@H](O)[C@H]3[C@@]4(C)CC[C@@H](O)[C@@H](C)[C@@H]4CC[C@@]32C)/C1=C(\CCC=C(C)C)C(=O)O	248
C[N+]1(C)CCCC(OC(=O)C(O)(c2ccccc2)c2ccccc2)C1.[Br-] (centres unmarked)	90
Br.COc1c2c(cc3c1OCO3)CCN(C)C2	126
Cl.NCC(=O)CCC(=O)O	83
CCOC(=O)c1c(C)cc(O)c(C=O)c1O	347
C[C@H](N)[C@H](O)c1ccc(O)c(O)c1	122
CC[N+](CC)(CC)CCOc1cccc(OCC[N+](CC)(CC)CC)c1OCC[N+](CC)(CC)CC.[I-].[I-].[I-]	91
COc1cc(O)c2c(=O)cc(C)oc2c1CC=C(C)C	158

Compound	NORMALIZED SGLT1 ACTIVITY (%)
CC(C)C[C@H](N)C(=O)N[C@@H](C)C(=O)O (H-Leu-Ala-OH)	120
CC1(C)S[C@@H]2[C@H](NC(=O)C(C(=O)[O-])c3ccccc3)C(=O)N2[C@H]1C(=O)[O-].[Na+].[Na+] (some centres unmarked)	112
NC(=O)c1ncn([C@@H]2O[C@H](CO)[C@@H](O)[C@H]2O)n1	97
Cl.NC12CC3CC(CC(C3)C1)C2	65
COc1cc(O)cc(/C=C/c2ccccc2)c1	494
CN1C2CC3C[C@H]1C(O3)C2O (some centres unmarked)	84
NC[C@@H]1O[C@H](O[C@@H]2[C@@H](CO)OC(O[C@@H]3[C@@H](O)[C@H](N)C[C@H](N)[C@H]3OC3O[C@H](CN)[C@@H](O)[C@H](O)[C@H]3N)[C@@H]2O)[C@H](N)[C@@H](O)[C@@H]1O.O=S(=O)(O)O (some centres unmarked)	102
CNC(C)C(O)c1ccccc1.Cl (centres unmarked)	124
Cl.Fc1ccc([C@@H]2CCNC[C@H]2COc2ccc3c(c2)OCO3)cc1	132
CC1CC[C@]2(NC1)O[C@H]1CC3C4CC[C@H]5C[C@@H](O)CC[C@]5(C)C4CC[C@]3(C)[C@H]1[C@@H]2C.Cl (some centres unmarked)	96
NC(=O)c1ccc(N)nc1	123
COc1cc2ccc(=O)oc2c2ccoc12	161
CC(C)CCCC(C)[C@H]1CCC2C3CC[C@@H]4C[C@H](O)CC[C@]4(C)C3CC[C@@]21C (some centres unmarked)	108
CC(C)=CCCC1(C)C=Cc2c(O)c3c(c(CC=C(C)C)c2O1)OC12C(=CC4CC1C(C)(C)OC2(C/C=C(/C)C(=O)O)C4=O)C3=O (centres unmarked)	163
Cc1ccnc(NS(=O)(=O)c2ccc(N)cc2)n1	123
C[C@H]1NC(=O)NC1=O	104
O=C1OC(=O)C2C3CCC(O3)C12 (centres unmarked)	124
c1ccc2c(c1)[nH]c1cnccc12	352
CC1=CC(=O)C(C(C)C)=CC1=O	90
OCCN1CCN(CCCN2c3ccccc3Sc3ccc(Cl)cc32)CC1	17
